The supplement of paper PMC10670038
± gives the standard deviation of the averaged measurements. This list holds what a sample rich in lowest values left over.

Tested on: TE10
Assay: relative cell viability vs DMSO, compound alone (fraction); TE10 is an esophageal squamous carcinoma line; higher = less cytotoxic
Conditions: 2 µM; 48 h
Experimental: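 TE10 ESCC cells (1,000/well, 384-well plates) were treated with Selleck bioactive library compounds at 2 uM alone for 48 h. Viability was read by CellTiter-Glo and expressed relative to DMSO wells. Two technical replicates (A, B).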

| SMILES | relative cell viability |
| --- | --- |
| Cc1nc2c(-c3cnc(N)nc3)nc(N3CCOCC3)nc2n1C(C)C | 0.431 ± 0.014 |
| Cc1ccccc1-n1c(Cn2nc(-c3cccc(O)c3)c3c(N)ncnc32)nc2cccc(C)c2c1=O | 1.18 ± 0.052 |
| CN1C2CCC1CC(OC(=O)C(O)c1ccccc1)C2 (stereo not given) [Homatropine Bromide] | 1.17 ± 0.075 |
| Cc1ccc(C(=O)NCCCCCC(=O)Nc2ccccc2N)cc1 | 0.919 ± 0.052 |
| COC(=O)C(CCCN=C(N)N)NS(=O)(=O)c1ccc(C)cc1 (stereo not given) | 0.856 ± 0.22 |
